Test results from the RNAGym collection of RNA variant scans (doi:10.1101/gad.245936.114).
This sample is rich in variants without activity.

B1: tRNA (parent)
chain: CUCUCGGUAGCCAAGUUGGUUUAAGGCGCAAGACUUUAAUUUAUCACUACGAAAUCUUGAGAUCGGGCGUUCGACUCGCCCCCGGGAGAUUUUUUCCUCGAGCAA

Variants of: B1
Assay: nonsense suppression (GFP-seq) (ratio to wild type); higher = more function; SUP4oc tRNA, yeast GFP reporter sort-seq
Method in brief: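 Yeast carrying genome-integrated SUP4oc tRNA variants from a library with ~3% random mutations were grown in raffinose/galactose medium with 80 mg/L adenine. Each strain also carried a galactose-driven GFP ochre reporter and RFP. Cells were sorted into GFP/RFP bins, and each bin was Illumina-sequenced (phred ≥30). Nonsense suppression (GFPSEQ) is the bin median GFP/RFP, weighted by each variant's estimated cell share per bin, relative to wild-type SUP4oc; variants needed ≥100 reads and ≥30 cells.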

Variant	nonsense suppression
G10A U55A C56A	≤ 0.026
G10A U55C	≤ 0.026
G10A U58C G88U	≤ 0.026
G10A U70C G78C A89C	≤ 0.026
G10A U76A	≤ 0.026
G10C A13C U17G U20A C64U G78A	≤ 0.026
G10C A13U G25A	≤ 0.026
G10C A13U G67U G78U	≤ 0.026
G10C A14C A60C	≤ 0.026
G10C A14G G18A G67A	≤ 0.026
G10C A14G G32C C80A A87G	≤ 0.026
G10C A14U	≤ 0.026
G10C A23U U58A G67A	≤ 0.026
G10C A30C C82U	≤ 0.026
G10C A33U	≤ 0.026
G10C A54C G61U G67U C72G	≤ 0.026
G10C A54U	≤ 0.026
G10C A60G C68G C77G	≤ 0.026
G10C C11A A87G	≤ 0.026
G10C C11A C56A G78C	≤ 0.026
G10C C11A G69U U70G	≤ 0.026
G10C C11U U35G A54U A62C U70A G78U C83U	≤ 0.026
G10C C11U U70A	≤ 0.026
G10C C12A U22G U57A	≤ 0.026

Variant	nonsense suppression
G10C C12G U16C U21C	≤ 0.026
G10C C27A U57G G69A	≤ 0.026
G10C C27G G73C	≤ 0.026
G10C C29A U76A	≤ 0.026
G10C C29G A74G C80U	≤ 0.026
G10C C34A C56A	≤ 0.026
G10C C34G A60G U63C G85A	≤ 0.026
G10C C56G U71G	≤ 0.026
G10C C64A C83G	≤ 0.026
G10C C64G C80A	≤ 0.026
G10C C68G U71C	≤ 0.026
G10C C72G	≤ 0.026
G10C C75A A87C	≤ 0.026
G10C C77U	≤ 0.026
G10C C79A	≤ 0.026
G10C C82G	≤ 0.026
G10C C83G A89C	≤ 0.026
G10C G15A C29A	≤ 0.026
G10C G15C U20G	≤ 0.026
G10C G15U A23U C56U	≤ 0.026
G10C G15U A31G U35G U70A	≤ 0.026
G10C G18A A24G G69C	≤ 0.026
G10C G18C	≤ 0.026
G10C G18C C56G G61C	≤ 0.026

Variant	nonsense suppression
G10C G19U A31C G61A C68U C80G	≤ 0.026
G10C G25C	≤ 0.026
G10C G25U C27G A33C G86A	≤ 0.026
G10C G26A U35G	≤ 0.026
G10C G28A A54U	≤ 0.026
G10C G28A U70A C77U	≤ 0.026
G10C G28U U63A C75G	≤ 0.026
G10C G32C C64G	≤ 0.026
G10C G32U C82G	≤ 0.026
G10C G32U U63G	≤ 0.026
G10C G59A U76A C77G	≤ 0.026
G10C G61A G66C C68U C75U	≤ 0.026
G10C G61C	≤ 0.026
G10C G61U A74G	≤ 0.026
G10C G65C U76G	≤ 0.026
G10C G66U	≤ 0.026
G10C G67C U70A	≤ 0.026
G10C G67C U71G	≤ 0.026
G10C G73C	≤ 0.026
G10C G73C A87U	≤ 0.026
G10C G73U	≤ 0.026
G10C G85C	≤ 0.026
G10C U17A G26U U35C U58G	≤ 0.026
G10C U17G G59C	≤ 0.026

Variant	nonsense suppression
G10C U20C G66A C82G	≤ 0.026
G10C U21A C72U A87U	≤ 0.026
G10C U21A G73C	≤ 0.026
G10C U35A C82G	≤ 0.026
G10C U35C G73U G78C	≤ 0.026
G10C U35G	≤ 0.026
G10C U55C G67U	≤ 0.026
G10C U57A	≤ 0.026
G10C U57A G86A	≤ 0.026
G10C U57C	≤ 0.026
G10C U58A A62U	≤ 0.026
G10C U58G G61A G85C	≤ 0.026
G10C U63A	≤ 0.026
G10C U70A	≤ 0.026
G10C U71A A74U A87C	≤ 0.026
G10U A13C	0.0296
G10U A13C G18A G26C G84C	≤ 0.026
G10U A13C U57A C75G	≤ 0.026
G10U A14C C34U	≤ 0.026
G10U A14C U16G G32C G59C	≤ 0.026
G10U A14G	≤ 0.026
G10U A14U G25C	≤ 0.026
G10U A23G	≤ 0.026
G10U A23G A62U	≤ 0.026

Variant	nonsense suppression
G10U A24G A31C A87C	≤ 0.026
G10U A24G A33G	≤ 0.026
G10U A24U C27U	≤ 0.026
G10U A30U U63G	≤ 0.026
G10U A33C	≤ 0.026
G10U A54C G86C	≤ 0.026
G10U A54C U63C U76C	≤ 0.026
G10U A60C A87U	≤ 0.026
G10U A60C G61A C72A	≤ 0.026
G10U A60C G61A C72A G88U	≤ 0.026
G10U A87C	≤ 0.026
G10U C11G	≤ 0.026
G10U C11U C27A C34G	≤ 0.026
G10U C11U U63A C82A	≤ 0.026
G10U C12A C34A	≤ 0.026
G10U C12A C80A	≤ 0.026
G10U C27A	0.119
G10U C27A A31U U55G U57G G85U	≤ 0.026
G10U C27A G85A	0.159
G10U C27G	≤ 0.026
G10U C29U A54C U70C	≤ 0.026
G10U C34A	≤ 0.026
G10U C56U	≤ 0.026
G10U C64A G85C	≤ 0.026

Variant	nonsense suppression
G10U C72A U76C G84A	≤ 0.026
G10U C72G	≤ 0.026
G10U G15A A33G	≤ 0.026
G10U G15C A23G G67C	≤ 0.026
G10U G15U A60C G69C A74U	≤ 0.026
G10U G18A C75U	≤ 0.026
G10U G18C C64A G66A	≤ 0.026
G10U G18U G78C	≤ 0.026
G10U G18U U58G A87U	≤ 0.026
G10U G19C A23C C79G	≤ 0.026
G10U G19U G67C	≤ 0.026
G10U G25A	≤ 0.026
G10U G26U G32U C56G G59C G78A C81G G84C	≤ 0.026
G10U G26U G73C	≤ 0.026
G10U G32A	≤ 0.026
G10U G32C	≤ 0.026
G10U G32C G73U	≤ 0.026
G10U G59A	≤ 0.026
G10U G59A A87C	≤ 0.026
G10U G59C	≤ 0.026
G10U G61A C81U	≤ 0.026
G10U G61A U71G	≤ 0.026
G10U G61C	≤ 0.026
G10U G61C G86U	≤ 0.026

Variant	nonsense suppression
G10U G66C G84C	≤ 0.026
G10U G66U G86C	≤ 0.026
G10U G67C G88U A89U	≤ 0.026
G10U G67U	≤ 0.026
G10U G69C G85C A87G	≤ 0.026
G10U G84A	≤ 0.026
G10U G85C	≤ 0.026
G10U G86A	≤ 0.026
G10U U16A	≤ 0.026
G10U U16G G32U A87C	≤ 0.026
G10U U17A	≤ 0.026
G10U U17A U21C C75A	≤ 0.026
G10U U17C U22A	≤ 0.026
G10U U17G G25C	≤ 0.026
G10U U20A A54U C82A	≤ 0.026
G10U U21C	≤ 0.026
G10U U21C A54U U58G	≤ 0.026
G10U U22C A31G G78U	≤ 0.026
G10U U22C C29U C79G	≤ 0.026
G10U U55A	≤ 0.026
G10U U55A A60U	≤ 0.026
G10U U55A G67C	≤ 0.026
G10U U55C	0.0469
